Data as given in the supplement of paper PMC3334620.
Whole data set: some 33,000 sequences, median “E-score (-0.5 to 0.5)” near -0.017, cut for the highest 2% near 0.3. This is one part of the list.

What follows are sequences tested against T1, Sut1 (UniProt P53032) (assay: PBM E-score (8-mer binding enrichment) (E-score (-0.5 to 0.5)); higher = stronger / more preferred TF binding; most listed sequences are background and not binding sites). Conditions: protein concentration: 200 nM; construct: GST-full length.
T1 sequence: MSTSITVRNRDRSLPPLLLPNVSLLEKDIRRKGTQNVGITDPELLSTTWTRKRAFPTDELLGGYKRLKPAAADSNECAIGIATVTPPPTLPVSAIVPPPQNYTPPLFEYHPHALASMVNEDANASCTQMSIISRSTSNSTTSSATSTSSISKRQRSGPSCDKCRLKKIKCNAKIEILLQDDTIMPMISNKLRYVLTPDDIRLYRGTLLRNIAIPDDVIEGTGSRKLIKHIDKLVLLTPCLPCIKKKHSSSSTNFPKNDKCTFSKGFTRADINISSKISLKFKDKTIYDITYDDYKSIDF
Procedure, shortened: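 GST-tagged yeast TFs (full-length or DNA-binding domain) were made by PURExpress in vitro transcription/translation and applied at about 100-200 nM to universal all-10-mer Agilent arrays. The arrays were made double-stranded by primer extension, on fresh or once-stripped slides. Bound protein was detected with fluorescent anti-GST, and scans were normalised with masliner. Each ungapped eight-base word, pooled with its reverse complement, received an E-score (modified Wilcoxon-Mann-Whitney statistic) from the Universal PBM Analysis Suite.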
In the case of CCCACCCC, the “PBM E-score” value is reported as -0.0609.
For AGCCTCTA, the “PBM E-score” value was -0.278.
With CAGAGTGC the “PBM E-score” value was -0.233.
For AGATATTC, the “PBM E-score” value was 0.0706.
With AATAAACG the “PBM E-score” value was 0.266.
With ACATCTTG the “PBM E-score” value was -0.157.
For GATAATAC, the “PBM E-score” value was 0.174.
With ACGCAGGA the “PBM E-score” value was -0.203.
With AATGTAAG the “PBM E-score” value was 0.234.
For ATACATAT, the “PBM E-score” value was 0.247.
In the case of CCGCGTCG, the “PBM E-score” value is reported as -0.132.
AAGAGGGG was tested, and the “PBM E-score” value was -0.0412.
For GCTTTAAA, the “PBM E-score” value was 0.0726.
In the case of AATGGGCT, the “PBM E-score” value is reported as -0.259.
With TGGGGTAA the “PBM E-score” value was 0.158.
For ACGCCCTG, the “PBM E-score” value was -0.154.
In the case of CATGCGCA, the “PBM E-score” value is reported as -0.128.
In the case of GCGCGGCC, the “PBM E-score” value is reported as -0.0724.
For AACCGGAA, the “PBM E-score” value was 0.229.
CCGACGCA was tested, and the “PBM E-score” value was -0.0538.
With ACCCAATA the “PBM E-score” value was 0.139.
In the case of ATAACATG, the “PBM E-score” value is reported as 0.194.
In the case of CAACACAA, the “PBM E-score” value is reported as 0.143.
AGCGCTGC was tested, and the “PBM E-score” value was -0.137.
With AATTCAAT the “PBM E-score” value was 0.156.
For ATCAGCAC, the “PBM E-score” value was 0.0955.
In the case of CAATCGCC, the “PBM E-score” value is reported as -0.127.
For AGCGATCG, the “PBM E-score” value was -0.0981.
In the case of GAACATGC, the “PBM E-score” value is reported as 0.0218.
AGTCGAAC was tested, and the “PBM E-score” value was 0.0861.
With ACGAAATC the “PBM E-score” value was 0.109.
With GATTTCAC the “PBM E-score” value was 0.184.
With GGGCGTCA the “PBM E-score” value was -0.171.
For GCCGCCAA, the “PBM E-score” value was -0.128.
CGCAAATA was tested, and the “PBM E-score” value was 0.198.
CCCTCACC was tested, and the “PBM E-score” value was -0.213.
ATTGCCCG was tested, and the “PBM E-score” value was -0.148.
With ATTCTTGA the “PBM E-score” value was 0.138.
In the case of TATTGAAA, the “PBM E-score” value is reported as 0.193.
In the case of GCTGATCA, the “PBM E-score” value is reported as 0.0284.
With CATGGCAG the “PBM E-score” value was -0.108.
In the case of AGCGCTGA, the “PBM E-score” value is reported as -0.115.
For CCGGTTAC, the “PBM E-score” value was -0.059.
With CCGAGCCG the “PBM E-score” value was 0.144.
ATCAACCA was tested, and the “PBM E-score” value was 0.00574.
For GGTCCTAC, the “PBM E-score” value was -0.214.
With ATGATCAA the “PBM E-score” value was 0.124.
For ATTTAATG, the “PBM E-score” value was 0.259.
For AGAGCCGC, the “PBM E-score” value was 0.0336.
With ACGAAGCT the “PBM E-score” value was -0.0508.
ATGTAGCC was tested, and the “PBM E-score” value was -0.335.
For ACATTGGA, the “PBM E-score” value was -0.0465.
For CCGTTCTA, the “PBM E-score” value was 0.154.
CCGCAACA was tested, and the “PBM E-score” value was 0.0608.
For CGCATCAG, the “PBM E-score” value was 0.0948.
ATATCACC was tested, and the “PBM E-score” value was 0.181.
In the case of ACGGGTCG, the “PBM E-score” value is reported as -0.13.
For TGAAGGAA, the “PBM E-score” value was 0.0901.
In the case of CGCGCCAA, the “PBM E-score” value is reported as -0.064.
In the case of AATGCTAC, the “PBM E-score” value is reported as 0.0674.
For CTAGTGGA, the “PBM E-score” value was -0.187.
With GTCTCTTA the “PBM E-score” value was 0.104.
CGCATTCA was tested, and the “PBM E-score” value was 0.115.
For AAGCAACG, the “PBM E-score” value was -0.0575.
With ATGACTGA the “PBM E-score” value was 0.0154.
With AACCTAGA the “PBM E-score” value was 0.0488.
For GAACCGCA, the “PBM E-score” value was 0.0646.
With CGCAGCGC the “PBM E-score” value was -0.112.
With ATATACGA the “PBM E-score” value was 0.0649.
ATTCGTCC was tested, and the “PBM E-score” value was 0.155.
AAAGTGAG was tested, and the “PBM E-score” value was 0.0249.
ACATGTCT was tested, and the “PBM E-score” value was 0.0211.
ATAGCGAC was tested, and the “PBM E-score” value was -0.0526.
With GCGCCCAC the “PBM E-score” value was -0.179.
With AGAGGGCA the “PBM E-score” value was -0.226.
With ACGAAACT the “PBM E-score” value was 0.0657.
With CCGGAGAA the “PBM E-score” value was 0.397.
In the case of GTCCGTAA, the “PBM E-score” value is reported as 0.342.
For ATCTAGTA, the “PBM E-score” value was 0.0605.
In the case of GCCATCCA, the “PBM E-score” value is reported as -0.206.
CGTGTGAC was tested, and the “PBM E-score” value was -0.0883.
With AAGTTGGC the “PBM E-score” value was 0.124.
ATCAGGGA was tested, and the “PBM E-score” value was -0.257.
With GCTGTTCC the “PBM E-score” value was -0.116.
For ATGCTATG, the “PBM E-score” value was -0.0168.
GAGCTTAA was tested, and the “PBM E-score” value was -0.0199.
For AGGAGTAA, the “PBM E-score” value was 0.0575.
In the case of CCGGTACG, the “PBM E-score” value is reported as -0.201.
For CTTCCACC, the “PBM E-score” value was -0.13.
For GCACTCGA, the “PBM E-score” value was 0.00498.
With CATAAGCG the “PBM E-score” value was -0.0855.
In the case of ACCAGTTC, the “PBM E-score” value is reported as -0.147.
In the case of ACTTATTA, the “PBM E-score” value is reported as 0.14.
CGAATAGA was tested, and the “PBM E-score” value was -0.0877.
In the case of CCTTGGCG, the “PBM E-score” value is reported as -0.18.
In the case of AGGTCTAC, the “PBM E-score” value is reported as -0.164.
CGCTATCC was tested, and the “PBM E-score” value was 0.0163.
With GTATATTA the “PBM E-score” value was 0.264.
With ACTCATTC the “PBM E-score” value was 0.0546.
TCTCCAAA was tested, and the “PBM E-score” value was -0.0978.
For GATTCTTA, the “PBM E-score” value was 0.221.
AATGTTGA was tested, and the “PBM E-score” value was 0.0703.
In the case of TGATAGAA, the “PBM E-score” value is reported as 0.042.
AAAGGCTT was tested, and the “PBM E-score” value was 0.0006.
For AAGTGCTG, the “PBM E-score” value was -0.0872.
CGATTGCA was tested, and the “PBM E-score” value was 0.0426.
ACTCTAAG was tested, and the “PBM E-score” value was -0.0309.
With CCCCTTAG the “PBM E-score” value was -0.206.
ACTAGTCG was tested, and the “PBM E-score” value was -0.0427.
With GATTCGTA the “PBM E-score” value was 0.06.
With CTGTCCTA the “PBM E-score” value was -0.0818.
In the case of AACAACCC, the “PBM E-score” value is reported as 0.183.
With ATTCGTGC the “PBM E-score” value was 0.091.
CATCGAAG was tested, and the “PBM E-score” value was 0.00625.
With AATTCTGG the “PBM E-score” value was -0.0608.
With ATACAAGG the “PBM E-score” value was 0.032.
With CACAACTC the “PBM E-score” value was 0.0306.
ATGCATCA was tested, and the “PBM E-score” value was 0.24.
In the case of AAACGCCC, the “PBM E-score” value is reported as -0.0788.
In the case of GCATCTCA, the “PBM E-score” value is reported as 0.0536.
CAAACAAG was tested, and the “PBM E-score” value was 0.0263.
For CTTTATCA, the “PBM E-score” value was 0.197.
In the case of GCAGCGCA, the “PBM E-score” value is reported as -0.216.
For ACAGCATA, the “PBM E-score” value was 0.0341.
AGTTTACC was tested, and the “PBM E-score” value was 0.143.
With ACCGGCAA the “PBM E-score” value was -0.198.
For AACAGCCG, the “PBM E-score” value was -0.175.
With CAGATGAA the “PBM E-score” value was 0.0207.
In the case of GACGACAC, the “PBM E-score” value is reported as 0.0533.
ACTCTCTA was tested, and the “PBM E-score” value was -0.0769.
CAAAGATC was tested, and the “PBM E-score” value was 0.118.
In the case of AATGTCAG, the “PBM E-score” value is reported as -0.0732.
GCCGACGC was tested, and the “PBM E-score” value was -0.0606.
With CCTAGGCC the “PBM E-score” value was -0.152.
AGATTCAG was tested, and the “PBM E-score” value was 0.0532.
CAAAGGGG was tested, and the “PBM E-score” value was -0.211.
ACTCTCCT was tested, and the “PBM E-score” value was -0.197.
With CGGAGTGA the “PBM E-score” value was 0.451.
AGCCAGCG was tested, and the “PBM E-score” value was -0.249.
GCAGCGAA was tested, and the “PBM E-score” value was -0.0499.
In the case of CTACAGAC, the “PBM E-score” value is reported as -0.191.
AGGAACAG was tested, and the “PBM E-score” value was -0.15.
For ATTCTAGG, the “PBM E-score” value was 0.0703.
With ACCCAGCA the “PBM E-score” value was -0.134.
With ATCATCTA the “PBM E-score” value was 0.00502.
For ATCCTAAT, the “PBM E-score” value was 0.0294.
For ATAGTGAC, the “PBM E-score” value was 0.0631.
With CATTGGCG the “PBM E-score” value was -0.223.
In the case of CCTTGTTC, the “PBM E-score” value is reported as -0.103.
CACCCAGA was tested, and the “PBM E-score” value was -0.00128.
CAAGAACG was tested, and the “PBM E-score” value was 0.159.
For ATGACGTA, the “PBM E-score” value was 0.0909.
In the case of ATGGTTGC, the “PBM E-score” value is reported as -0.183.
In the case of GATGTGCA, the “PBM E-score” value is reported as -0.094.
With ATCAAATA the “PBM E-score” value was 0.239.
With ATGTTTTC the “PBM E-score” value was 0.165.
ATACCTGC was tested, and the “PBM E-score” value was -0.196.
With CGAGACAA the “PBM E-score” value was -0.1.
In the case of AGCTAATG, the “PBM E-score” value is reported as -0.147.
With CCATTCAA the “PBM E-score” value was 0.0663.
In the case of ATCGTAAT, the “PBM E-score” value is reported as 0.253.
AGCTCACG was tested, and the “PBM E-score” value was -0.137.
ACAAAGCA was tested, and the “PBM E-score” value was 0.0335.
For ACTTAACA, the “PBM E-score” value was -0.0136.
In the case of CGCTACAC, the “PBM E-score” value is reported as -0.298.
In the case of CGCCGCGC, the “PBM E-score” value is reported as -0.246.
For GAGTGAAC, the “PBM E-score” value was -0.111.
For CAGAAGCC, the “PBM E-score” value was -0.134.
For TATCGCAA, the “PBM E-score” value was 0.0889.
AATGTGTA was tested, and the “PBM E-score” value was 0.0338.
In the case of CACTATAC, the “PBM E-score” value is reported as -0.0209.
With GGAGACAC the “PBM E-score” value was -0.0271.
